PMC4336329 (PLoS ONE, 2015)
Out of some 310,000 compounds screened, about 2,200 (0.71%) showed an effect of 50% or more. The effect is printed as a negative number. The list shows a part of the results.

These compounds were tested against human ether-à-go-go-related gene (hERG) potassium channel (human, UniProt Q12809) (assay: primary screen, population patch clamp on CHO cells stably expressing hERG).
Sequence of human ether-à-go-go-related gene (hERG) potassium channel (Q12809 whole entry, looked up): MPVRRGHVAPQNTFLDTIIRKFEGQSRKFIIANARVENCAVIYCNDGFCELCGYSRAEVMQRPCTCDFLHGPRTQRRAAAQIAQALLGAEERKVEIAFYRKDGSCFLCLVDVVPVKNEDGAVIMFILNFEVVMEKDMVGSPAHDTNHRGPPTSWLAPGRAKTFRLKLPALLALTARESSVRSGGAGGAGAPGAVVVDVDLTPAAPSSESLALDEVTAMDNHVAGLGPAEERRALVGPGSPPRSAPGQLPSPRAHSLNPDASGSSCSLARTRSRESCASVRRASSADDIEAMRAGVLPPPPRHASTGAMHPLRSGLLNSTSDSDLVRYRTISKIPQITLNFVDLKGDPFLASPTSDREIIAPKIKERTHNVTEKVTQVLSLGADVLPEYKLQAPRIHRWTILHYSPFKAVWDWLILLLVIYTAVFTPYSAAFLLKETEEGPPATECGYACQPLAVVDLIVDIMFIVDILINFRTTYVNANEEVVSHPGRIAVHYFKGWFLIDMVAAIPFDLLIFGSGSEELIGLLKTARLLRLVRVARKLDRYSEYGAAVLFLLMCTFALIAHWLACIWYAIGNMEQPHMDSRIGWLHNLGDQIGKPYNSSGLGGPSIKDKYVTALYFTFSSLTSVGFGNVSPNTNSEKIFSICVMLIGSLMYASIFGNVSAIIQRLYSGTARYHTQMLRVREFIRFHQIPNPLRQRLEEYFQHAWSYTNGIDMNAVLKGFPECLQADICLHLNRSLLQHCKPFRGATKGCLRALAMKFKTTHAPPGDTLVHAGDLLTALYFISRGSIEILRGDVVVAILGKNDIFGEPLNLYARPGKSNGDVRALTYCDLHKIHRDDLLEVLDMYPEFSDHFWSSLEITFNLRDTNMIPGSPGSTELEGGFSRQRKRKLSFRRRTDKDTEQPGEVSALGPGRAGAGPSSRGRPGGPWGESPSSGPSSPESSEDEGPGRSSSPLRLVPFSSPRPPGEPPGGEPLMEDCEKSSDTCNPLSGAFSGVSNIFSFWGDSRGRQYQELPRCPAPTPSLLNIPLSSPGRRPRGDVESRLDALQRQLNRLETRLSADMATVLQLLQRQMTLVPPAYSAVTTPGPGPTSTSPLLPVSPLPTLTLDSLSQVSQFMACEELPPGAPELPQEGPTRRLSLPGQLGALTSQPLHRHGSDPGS

SMILES | hERG current change (%, negative = inhibition) at 1uM
COc1ccc(-c2ccc(=O)n(CC(=O)Nc3ccc4c(c3)OCCO4)n2)cc1 | 17.9%
O=C(COc1ccccc1F)NNC(=O)Cn1c(=O)cnc2ccccc21 | 10.8%
Cc1ccccc1-n1nnnc1SCC(=O)NCC1CCCO1 (stereo not shown) | 9.06%
Cn1cnnc1Sc1ccc(/C=C(\CCC(=O)O)c2nc3ccccc3s2)cc1[N+](=O)[O-] | 6.87%
COc1cc(CN2CCN(c3ccccc3F)CC2)c([N+](=O)[O-])cc1OC | 0.56%
O=C(CN1C(=O)CCS(=O)(=O)c2ccccc21)Nc1ccccc1F | 6.63%
CC(C)(C)C(=O)Nc1cccc(-c2nnc(-c3cccc(NC(=O)C(C)(C)C)c3)o2)c1 | 4.48%
Cc1ccc(NC(=O)CSc2nccn2C)cc1S(=O)(=O)N1CCOCC1 | 6.45%
CN1CCC(=NNC(=O)c2cc(-c3ccc(Cl)cc3)n[nH]2)CC1 | 2.03%
CC1(OC(=O)CCc2ccccc2)C(=O)C=C2C=C(c3ccc(C#N)cc3)N(CCc3c[nH]c4ccccc34)C=C2C1=O (stereo not shown) | 12.3%
COc1ccccc1NC(=O)NS(=O)(=O)c1ccc(C)cc1 | 13.3%
O=c1c2c(-c3cccs3)csc2ncn1-c1ccc(Br)cc1 | -2.84%
Cc1ccccc1S(=O)(=O)c1c(C)cc(-c2ccccc2)[nH]c1=O | -0.185%
CCN(CC)c1ccc(/C=N/NC(=O)c2cccc(S(=O)(=O)N3CCOCC3)c2)cc1 | -4.35%
CC1=CC(C)(C)Nc2ccc(OS(=O)(=O)c3ccc(C)cc3)cc21 | -1.08%
S=C(Nc1ccccc1)N1CCOCC1 | 10.7%
COc1cc(NC(=O)Nc2cc(C)on2)cc(OC)c1OC | 13.3%
CCOC(=O)c1cc(NC(=O)c2cccs2)ccc1N1CCOCC1 | -1.73%
COc1ccc(C(=O)NN2C(=O)C3CCC(C)(C2=O)C3(C)C)cc1 (stereo not shown) | 5.32%
CC(C)CCNC(=O)NC(=O)COC(=O)/C=C/c1cnc2ccccc2n1 | 2.97%
CN1C(=O)C(=O)/C(=C(/O)c2ccc(Br)cc2)C1c1ccc(Cl)cc1 (stereo not shown) | 14.5%
COc1ccccc1NC(=O)c1nn(-c2ccc(F)c(F)c2)ccc1=O | 7.47%

SMILES | hERG current change (%, negative = inhibition) at 1uM
C/C(=N\NC(=O)c1ccc(OC2OCCOC2Oc2ccc(C(=O)N/N=C(\C)c3ccncc3)cc2)cc1)c1ccncc1 (stereo not shown) | 3.2%
C=C1CCC[C@]2(C)C[C@H]3OC(=O)C(CNCCN(C)C)[C@H]3CC12 (stereo partly shown) | 2.03%
CCOc1ccc(-c2[nH]nc3c2C(c2cccnc2)C(C#N)=C(N)O3)cc1 (stereo not shown) | 0.726%
Cc1onc(NC(=O)CSCC(=O)O)c1Br | 11.1%
CCOc1ccc(-c2onc(C(F)(F)F)c2-c2cscn2)c(O)c1 | 2.68%
CSc1ccc(S(=O)(=O)N(C)Cc2ccccc2)cc1 | 11.6%
CN(C)N1C(=O)/C(=C/c2ccco2)SC1=Nc1ccccc1 | 15.8%
CC(=O)N1CC(C)Oc2ccc(S(=O)(=O)NC(CC(=O)O)c3ccccc3)cc21 (stereo not shown) | 14.8%
Cc1ccccc1COc1ccc(/C(O)=C2/C(=O)C(=O)N(CCCn3ccnc3)C2c2ccco2)cc1 (stereo not shown) | 12.7%
COc1ccc(S(=O)(=O)N2CCOCC2)cc1N=Nc1sc(N)nc1-c1ccccc1 | 4.15%
Cc1cc(C(=O)CSc2nnc(-c3ccccc3F)o2)c(C)n1Cc1cccs1 | -5.3%
Cc1cc(C(=O)N/N=C/c2ccc([N+](=O)[O-])cc2)c(C)o1 | 5.5%
CCOC(=O)CCc1n[nH]c(=O)[nH]c1=O | 5.05%
COc1ccc(CNC(=O)CSCc2cnn(-c3ccccc3)c2-n2cccc2)cc1 | -10.6%
CCCCC(=O)Nc1nnn(CCC)n1 | 13.1%
COc1ccc(/C=N\NC(=O)c2ccc(F)cc2)cc1COc1ccccc1C(N)=O | -7.94%
CC(=NCCN1CCCCC1)c1c(O)n(Cc2ccccc2)c(=O)[nH]c1=O | -4.59%
O=C(Cn1c(=O)c2cccn2c2ccccc21)NCc1cccc(F)c1 | 10.2%
COc1c(C(C)C)cc(NC(C)=O)cc1C(C)C | 8.49%
CCC1CCCCN1C(=O)CN1C(=O)CSC1=O (stereo not shown) | 12.7%
COc1ccc(C2C(C(=O)N3CCN(c4ccccn4)CC3)CC(=O)N2c2ccc(OC)cc2)cc1 (stereo not shown) | -50.6%
